Reference: the supplement of paper PMC8728848
The list shows a part of the results.

Experiments:
Experiment in all cases: glycan array binding signal (z-score within array); higher = stronger binding
Settings in all cases: glycan notation: IUPAC condensed, linker removed
[1] = biological target: Gal(b1-3)[Neu5Ac(a2-6)]GlcNAc
Procedure, shortened: (§1)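 The binding signal is a Z-score computed within each array. Data were drawn from 3228 arrays in the Consortium for Functional Glycomics database, restricted to those with a known protein sequence. Scores were averaged over arrays of the same protein sequence at different concentrations or buffers, and over linkers, and negative values can be taken as non-binding.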

[2] = biological target: Gal(b1-3)[Neu5Ac(a2-6)]GlcNAc(a1-4)Gal(b1-4)Glc
Procedure, shortened: as §1

[3] = biological target: Gal(b1-3)[Neu5Ac(a2-6)]GlcNAc(b1-4)Gal(b1-4)Glc
Procedure, shortened: as §1

[4] = biological target: Gal(b1-3)[Neu5Ac(b2-6)]GalNAc
Procedure, shortened: as §1

[5] = biological target: Gal(b1-3)[Neu5Ac(b2-6)]GlcNAc
Procedure, shortened: as §1

Gal(b1-4)Gal = biological target: Gal(b1-4)Gal
Procedure, shortened: as §1

[6] = biological target: Gal(b1-4)GalNAc(a1-3)[Fuc(a1-2)]Gal(b1-4)GlcNAc
Procedure, shortened: as §1

[7] = biological target: Gal(b1-4)GalNAc(b1-3)[Fuc(a1-2)]Gal(b1-4)GlcNAc
Procedure, shortened: as §1

Gal(b1-4)Glc = biological target: Gal(b1-4)Glc
Procedure, shortened: as §1

Gal(b1-4)Glc6S = biological target: Gal(b1-4)Glc6S
Procedure, shortened: as §1

Gal(b1-4)GlcNAc = biological target: Gal(b1-4)GlcNAc
Procedure, shortened: as §1

[8] = biological target: Gal(b1-4)GlcNAc(a1-6)Gal(b1-4)GlcNAc
Procedure, shortened: as §1

Gal(b1-4)GlcNAc(b1-2)Man = biological target: Gal(b1-4)GlcNAc(b1-2)Man
Procedure, shortened: as §1

[9] = biological target: Gal(b1-4)GlcNAc(b1-2)Man(a1-3)Man(b1-4)GlcNAc(b1-4)GlcNAc
Procedure, shortened: as §1

[10] = biological target: Gal(b1-4)GlcNAc(b1-2)Man(a1-3)[Gal(b1-4)GlcNAc(b1-2)Man(a1-6)]Man(b1-4)GlcNAc(b1-4)GlcNAc
Procedure, shortened: as §1

[11] = biological target: Gal(b1-4)GlcNAc(b1-2)Man(a1-3)[Gal(b1-4)GlcNAc(b1-2)Man(a1-6)]Man(b1-4)GlcNAc(b1-4)[Fuc(a1-6)]GlcNAc
Procedure, shortened: as §1

[12] = biological target: Gal(b1-4)GlcNAc(b1-2)Man(a1-3)[Gal(b1-4)GlcNAc(b1-2)Man(a1-6)][Gal(b1-4)GlcNAc(b1-4)]Man(b1-4)GlcNAc(b1-4)[Fuc(a1-6)]GlcNAc
Procedure, shortened: as §1

[13] = biological target: Gal(b1-4)GlcNAc(b1-2)Man(a1-3)[Gal(b1-4)GlcNAc(b1-2)Man(a1-6)][GlcNAc(b1-4)]Man(b1-4)GlcNAc(b1-4)[Fuc(a1-6)]GlcNAc
Procedure, shortened: as §1

[14] = biological target: Gal(b1-4)GlcNAc(b1-2)Man(a1-3)[GlcNAc(b1-2)Man(a1-6)]Man(b1-4)GlcNAc(b1-4)GlcNAc
Procedure, shortened: as §1

[15] = biological target: Gal(b1-4)GlcNAc(b1-2)Man(a1-3)[GlcNAc(b1-4)][Gal(b1-4)GlcNAc(b1-2)Man(a1-6)]Man(b1-4)GlcNAc(b1-4)GlcNAc
Procedure, shortened: as §1

[16] = biological target: Gal(b1-4)GlcNAc(b1-2)Man(a1-3)[Man(a1-6)]Man(b1-4)GlcNAc(b1-4)GlcNAc
Procedure, shortened: as §1

[17] = biological target: Gal(b1-4)GlcNAc(b1-2)Man(a1-6)Man(b1-4)GlcNAc(b1-4)GlcNAc
Procedure, shortened: as §1

[18] = biological target: Gal(b1-4)GlcNAc(b1-2)Man(a1-6)[GlcNAc(b1-2)Man(a1-3)]Man(b1-4)GlcNAc(b1-4)GlcNAc
Procedure, shortened: as §1

[19] = biological target: Gal(b1-4)GlcNAc(b1-2)Man(a1-6)[Man(a1-3)]Man(b1-4)GlcNAc(b1-4)GlcNAc
Procedure, shortened: as §1

[20] = biological target: Gal(b1-4)GlcNAc(b1-2)[Gal(b1-4)GlcNAc(b1-4)]Man(a1-3)[Gal(b1-4)GlcNAc(b1-2)Man(a1-6)]Man(b1-4)GlcNAc(b1-4)GlcNAc
Procedure, shortened: as §1

[21] = biological target: Gal(b1-4)GlcNAc(b1-2)[Gal(b1-4)GlcNAc(b1-4)]Man(a1-3)[Gal(b1-4)GlcNAc(b1-2)[Gal(b1-4)GlcNAc(b1-6)]Man(a1-6)]Man(b1-4)GlcNAc(b1-4)GlcNAc
Procedure, shortened: as §1

[22] = biological target: Gal(b1-4)GlcNAc(b1-2)[Gal(b1-4)GlcNAc(b1-4)]Man(a1-3)[GlcNAc(b1-4)][Gal(b1-4)GlcNAc(b1-2)Man(a1-6)]Man(b1-4)GlcNAc(b1-4)GlcNAc
Procedure, shortened: as §1

[23] = biological target: Gal(b1-4)GlcNAc(b1-2)[Gal(b1-4)GlcNAc(b1-4)]Man(a1-3)[GlcNAc(b1-4)][Gal(b1-4)GlcNAc(b1-2)[Gal(b1-4)GlcNAc(b1-6)]Man(a1-6)]Man(b1-4)GlcNAc(b1-4)GlcNAc
Procedure, shortened: as §1

[24] = biological target: Gal(b1-4)GlcNAc(b1-2)[Gal(b1-4)GlcNAc(b1-6)]Man(a1-6)[Gal(b1-4)GlcNAc(b1-2)Man(a1-3)]Man(b1-4)GlcNAc(b1-4)GlcNAc
Procedure, shortened: as §1

[25] = biological target: Gal(b1-4)GlcNAc(b1-2)[Gal(b1-4)GlcNAc(b1-6)]Man(a1-6)[Gal(b1-4)GlcNAc(b1-2)Man(a1-3)]Man(b1-4)GlcNAc(b1-4)[Fuc(a1-6)]GlcNAc
Procedure, shortened: as §1

[26] = biological target: Gal(b1-4)GlcNAc(b1-2)[Gal(b1-4)GlcNAc(b1-6)]Man(a1-6)[GlcNAc(b1-4)][Gal(b1-4)GlcNAc(b1-2)Man(a1-3)]Man(b1-4)GlcNAc(b1-4)GlcNAc
Procedure, shortened: as §1

[27] = biological target: Gal(b1-4)GlcNAc(b1-2)[Gal(b1-4)GlcNAc(b1-6)]Man(a1-6)[GlcNAc(b1-4)][Gal(b1-4)GlcNAc(b1-2)[Gal(b1-4)GlcNAc(b1-4)]Man(a1-3)]Man(b1-4)GlcNAc(b1-4)[Fuc(a1-6)]GlcNAc
Procedure, shortened: as §1

[28] = biological target: Gal(b1-4)GlcNAc(b1-3)Gal(b1-3)GalNAc
Procedure, shortened: as §1

[29] = biological target: Gal(b1-4)GlcNAc(b1-3)Gal(b1-3)GlcNAc
Procedure, shortened: as §1

[30] = biological target: Gal(b1-4)GlcNAc(b1-3)Gal(b1-4)Glc
Procedure, shortened: as §1

[31] = biological target: Gal(b1-4)GlcNAc(b1-3)Gal(b1-4)GlcNAc
Procedure, shortened: as §1

[32] = biological target: Gal(b1-4)GlcNAc(b1-3)Gal(b1-4)GlcNAc(b1-2)Man(a1-3)[Gal(b1-4)GlcNAc(b1-3)Gal(b1-4)GlcNAc(b1-2)Man(a1-6)]Man(b1-4)GlcNAc(b1-4)GlcNAc
Procedure, shortened: as §1

[33] = biological target: Gal(b1-4)GlcNAc(b1-3)Gal(b1-4)GlcNAc(b1-2)Man(a1-3)[Gal(b1-4)GlcNAc(b1-3)Gal(b1-4)GlcNAc(b1-2)Man(a1-6)]Man(b1-4)GlcNAc(b1-4)[Fuc(a1-6)]GlcNAc
Procedure, shortened: as §1

[34] = biological target: Gal(b1-4)GlcNAc(b1-3)Gal(b1-4)GlcNAc(b1-2)[Gal(b1-4)GlcNAc(b1-3)Gal(b1-4)GlcNAc(b1-6)]Man(a1-6)[Gal(b1-4)GlcNAc(b1-3)Gal(b1-4)GlcNAc(b1-2)Man(a1-3)]Man(b1-4)GlcNAc(b1-4)GlcNAc
Procedure, shortened: as §1

[35] = biological target: Gal(b1-4)GlcNAc(b1-3)Gal(b1-4)GlcNAc(b1-2)[Gal(b1-4)GlcNAc(b1-3)Gal(b1-4)GlcNAc(b1-6)]Man(a1-6)[Gal(b1-4)GlcNAc(b1-3)Gal(b1-4)GlcNAc(b1-2)Man(a1-3)]Man(b1-4)GlcNAc(b1-4)[Fuc(a1-6)]GlcNAc
Procedure, shortened: as §1

[36] = biological target: Gal(b1-4)GlcNAc(b1-3)Gal(b1-4)GlcNAc(b1-3)Gal(b1-4)GlcNAc
Procedure, shortened: as §1

[37] = biological target: Gal(b1-4)GlcNAc(b1-3)Gal(b1-4)GlcNAc(b1-3)Gal(b1-4)GlcNAc(b1-2)Man(a1-3)[Gal(b1-4)GlcNAc(b1-3)Gal(b1-4)GlcNAc(b1-3)Gal(b1-4)GlcNAc(b1-2)Man(a1-6)]Man(b1-4)GlcNAc(b1-4)GlcNAc
Procedure, shortened: as §1

[38] = biological target: Gal(b1-4)GlcNAc(b1-3)Gal(b1-4)GlcNAc(b1-3)Gal(b1-4)GlcNAc(b1-2)Man(a1-3)[Gal(b1-4)GlcNAc(b1-3)Gal(b1-4)GlcNAc(b1-3)Gal(b1-4)GlcNAc(b1-2)Man(a1-6)]Man(b1-4)GlcNAc(b1-4)[Fuc(a1-6)]GlcNAc
Procedure, shortened: as §1

[39] = biological target: Gal(b1-4)GlcNAc(b1-3)Gal(b1-4)GlcNAc(b1-3)Gal(b1-4)GlcNAc(b1-2)[Gal(b1-4)GlcNAc(b1-3)Gal(b1-4)GlcNAc(b1-3)Gal(b1-4)GlcNAc(b1-6)]Man(a1-6)[Gal(b1-4)GlcNAc(b1-3)Gal(b1-4)GlcNAc(b1-3)Gal(b1-4)GlcNAc(b1-2)Man(a1-3)]Man(b1-4)GlcNAc(b1-4)[Fuc(a1-6)]GlcNAc
Procedure, shortened: as §1

[40] = biological target: Gal(b1-4)GlcNAc(b1-3)Gal(b1-4)GlcNAc(b1-3)Gal(b1-4)GlcNAc(b1-3)Gal(b1-4)GlcNAc(b1-2)Man(a1-3)[Gal(b1-4)GlcNAc(b1-3)Gal(b1-4)GlcNAc(b1-3)Gal(b1-4)GlcNAc(b1-3)Gal(b1-4)GlcNAc(b1-2)Man(a1-6)]Man(b1-4)GlcNAc(b1-4)GlcNAc
Procedure, shortened: as §1

B1: Epa15 (Candida glabrata) (protein)
chain: MGSSHHHHHHSSGLVPRGSHMASDPTTFPLGCSPEFTKTKKGLSMELYRYDYLPPGSYPCWDSAYLNPSYPRTGYKAKKLIATVDGVSGDINFKFNPKFGCKAIPDYLPSNFNYHEPITITNFTMILYGYFMPKTTAFHTFYVTADDLLFMNFGAGNAFDCCRREETADKFGNYAAYSVWGKKSLKNELTVYLHTGVYYPIRLFYNNRDYIAQLDIRFKTEHSNAIITNFTDYFYSVDDSSLGCPGLI
glycan array binding signal (z-score) [1]: 2.5
glycan array binding signal (z-score) [2]: -0.269
glycan array binding signal (z-score) [3]: 0.174
glycan array binding signal (z-score) [4]: 0.796
glycan array binding signal (z-score) [5]: -0.19
glycan array binding signal (z-score) (Gal(b1-4)Gal): -0.308
glycan array binding signal (z-score) [6]: -0.276
glycan array binding signal (z-score) [7]: 0.387
glycan array binding signal (z-score) (Gal(b1-4)Glc): -0.25
glycan array binding signal (z-score) (Gal(b1-4)Glc6S): 0.486
glycan array binding signal (z-score) (Gal(b1-4)GlcNAc): -0.049
glycan array binding signal (z-score) [8]: 0.324
glycan array binding signal (z-score) (Gal(b1-4)GlcNAc(b1-2)Man): -0.235
glycan array binding signal (z-score) [9]: 0.064
glycan array binding signal (z-score) [10]: 1.75
glycan array binding signal (z-score) [11]: -0.257
glycan array binding signal (z-score) [12]: 0.437
glycan array binding signal (z-score) [13]: 0.366
glycan array binding signal (z-score) [14]: -0.432
glycan array binding signal (z-score) [15]: 0.065
glycan array binding signal (z-score) [16]: -0.258
glycan array binding signal (z-score) [17]: -0.03
glycan array binding signal (z-score) [18]: 0.059
glycan array binding signal (z-score) [19]: 0.707
glycan array binding signal (z-score) [20]: 0.566
glycan array binding signal (z-score) [21]: -0.038
glycan array binding signal (z-score) [22]: 1.09
glycan array binding signal (z-score) [23]: 0.66
glycan array binding signal (z-score) [24]: 1.03
glycan array binding signal (z-score) [25]: 0.393
glycan array binding signal (z-score) [26]: -0.041
glycan array binding signal (z-score) [27]: -0.311
glycan array binding signal (z-score) [28]: 0.68
glycan array binding signal (z-score) [29]: -0.222
glycan array binding signal (z-score) [30]: -0.063
glycan array binding signal (z-score) [31]: 0.46
glycan array binding signal (z-score) [32]: 0.585
glycan array binding signal (z-score) [33]: 0.944
glycan array binding signal (z-score) [34]: 2.71
glycan array binding signal (z-score) [35]: 0.993
glycan array binding signal (z-score) [36]: 0.142
glycan array binding signal (z-score) [37]: 0.704
glycan array binding signal (z-score) [38]: 0.412
glycan array binding signal (z-score) [39]: 0.664
glycan array binding signal (z-score) [40]: 0.185
